B1: Asx deletion fragment A(1381-1501), 35S-labelled, in vitro translated (domain or fragment, UniProt Q9V727 1381-1501)
chain: YVQRKPSPTTLIRHVFSPGPGGATATAQQLQMLQQHHQSTTSPVPVQNPQQPAPEQLIHQNGNGQYVLVHRANVGAADNQAPRASSAPPMHQNQFVTVQNPLHSINGIPMGGRGRPASVDT
modifications: 35S-methionine labelled
B2: Asx COOH terminal residues 1200-1501, E(z)/Trx SET domain interaction site 2 (AsxETSI-2), 35S-labelled, in vitro translated (domain or fragment, UniProt Q9V727 1200-1501)
chain: MQQLPNVLTMKTLPPSGVPTTIAQQRLQPKMPTGKGRKATSNRLPPGAVNLERSYQICQAVIQNSPNRENLKAQLRPPAAILNQHQPTTTTAPAPINPVTLNVSTVAATPMSNITTATGSMAAAVAAAPPQNVLKQEELLVSGAVGAGALPAGLPPNVMGVGRPGVYKVIGPRMSGFPRKKYVQRKPSPTTLIRHVFSPGPGGATATAQQLQMLQQHHQSTTSPVPVQNPQQPAPEQLIHQNGNGQYVLVHRANVGAADNQAPRASSAPPMHQNQFVTVQNPLHSINGIPMGGRGRPASVDT
modifications: 35S-methionine labelled
B3: Asx deletion fragment A(200-354), 35S-labelled, in vitro translated (domain or fragment, UniProt Q9V727 200-354)
chain: AQIEQTKDGKIDLETPDSILASTNLRALLNKQTFSLLPPLYQYNLIQLLPSVDREASELEQPSSSASGGSPSEAIRLSASCLNNEFFARACLEWRERLSEGEFTPENQLKLKTEAEREKNKLDPWKLKHFEPFWGEKNSRGKDKDKLESDCKNQK
modifications: 35S-methionine labelled
B4: Asx deletion fragment A(1-200), 35S-labelled, in vitro translated (domain or fragment, UniProt Q9V727 1-200)
chain: MKTITPDTTTTTSSQHQQLLIPQADQHHQPMLQQQSLLAAPPPTMIMEHVNLVDDDEKDPLALEQLEVSPSTKHTHSLRRHLPRIIVKPIPPEKKPMAPSEEAAVSTAPAPPTRLICSRRIQQQQQVKAAAAAAAAAAAAAAAAAAAAQAQATSSYPSAISPGSKAGTSQASTMREVLASIPGFSVKPRRRSNKKLTTAA
modifications: 35S-methionine labelled
B5: Asx NH2 terminal residues 1-354, E(z)/Trx SET domain interaction site 1 (AsxETSI-1), 35S-labelled, in vitro translated (domain or fragment, UniProt Q9V727 1-354)
chain: MKTITPDTTTTTSSQHQQLLIPQADQHHQPMLQQQSLLAAPPPTMIMEHVNLVDDDEKDPLALEQLEVSPSTKHTHSLRRHLPRIIVKPIPPEKKPMAPSEEAAVSTAPAPPTRLICSRRIQQQQQVKAAAAAAAAAAAAAAAAAAAAQAQATSSYPSAISPGSKAGTSQASTMREVLASIPGFSVKPRRRSNKKLTTAAQIEQTKDGKIDLETPDSILASTNLRALLNKQTFSLLPPLYQYNLIQLLPSVDREASELEQPSSSASGGSPSEAIRLSASCLNNEFFARACLEWRERLSEGEFTPENQLKLKTEAEREKNKLDPWKLKHFEPFWGEKNSRGKDKDKLESDCKNQK
modifications: 35S-methionine labelled
B6: Asx COOH terminal deletion mutant A(1-1200), 35S-labelled, in vitro translated (domain or fragment, UniProt Q9V727 1-1200)
chain: MKTITPDTTTTTSSQHQQLLIPQADQHHQPMLQQQSLLAAPPPTMIMEHVNLVDDDEKDPLALEQLEVSPSTKHTHSLRRHLPRIIVKPIPPEKKPMAPSEEAAVSTAPAPPTRLICSRRIQQQQQVKAAAAAAAAAAAAAAAAAAAAQAQATSSYPSAISPGSKAGTSQASTMREVLASIPGFSVKPRRRSNKKLTTAAQIEQTKDGKIDLETPDSILASTNLRALLNKQTFSLLPPLYQYNLIQLLPSVDREASELEQPSSSASGGSPSEAIRLSASCLNNEFFARACLEWRERLSEGEFTPENQLKLKTEAEREKNKLDPWKLKHFEPFWGEKNSRGKDKDKLESDCKNQKLSASIKSEPKPPATSQQKPLQQATCDNETELKFDLSTKCETTSAKTTVAVAVADKSSTFPPTGSQNNVLNEQQRRVLKRPSSSPSQRKQAPTTIATINLDDDLDELPSTSKDSKQPKMDEIVPNASGNVVAAPMVDVVDHSAVEMKIKDEQQHQRQHQPLINSTCDKIEPSECSKEMIVAMKQVDSKEDVDSIASAAAMPAIAAVTPHTPKPEALAPNPDVANQFVSYLQNVELAAETKAPLDNSNEADITTGTNSHDFVFSDTIDHAYFQEHQSTINHNFFTSSSSSNTATTAANKLEEHSDKPEDSPLPIASSISGSTPASSITSTSCTSSSSSSASMSSSCSSSNSGSTTTAPTTSSSAGAPTAPLTLAAAAETTLANVQAMLSTVAKLQQQQQELPVELNSNEMYQHVQHDWNFGDIKLSSSQSSGDQQRNLSHEAIDLMDVVQDADVIDDIMHNDVCHDVLGDEDEGDQEEDEDDEVVECMTEEQQLIDEDSEAVREIVDKLQQHQQQQNQQQHHQQLHIQDVVQLAQHSFMPQAHSEFGNDIGQEMLCDAVPMSAAEMEVSSTVITNSSNSNDSSNNISLCSSTNSLTINQMPHQASQQPQQNAQSNAQQQRQILVDSNGQIIGNFLLQQQRQQQQQQLLQQFTLQAAAAQQQQQQQQQHQQQQQQQQQATSSNSLGKTLPVALRNGTQQFLSPNLIAQQHQQQQQQQLEQHQQQATAQQKHQQIQQFALQQAQLHQRQLLAQAANNNLLQQQQQQQQNVALPTTQAKFIAKPLNIISMTRPANASPTTAATTANTASIPSAYANVVAVTGAQQQQSPPVPAPQQQTVQQQQLANHNSNM
modifications: 35S-methionine labelled

These are yes or no findings as the source states them, for the method shown. Binding seen in cells or lysates may run through a third protein. Some results given as binding are weak or reduced against the parent protein; the word gives no strength.

The assay has as its target GST fusion of the SET domain of Enhancer of zeste, GST-E(z)SET (Drosophila) (UniProt P42124). In words: pull-down; 1 μg GST-E(z)SET or GST-TrxSET immobilised on GSH-agarose, mixed 2 h at 4 °C with pre-cleared reticulocyte lysate holding 35S-Asx or its deletion fragments; washes with 0.6 M NaCl, pH 7.9; SDS-PAGE and autoradiography, densitometry relative to GST; only the target purified.
For the molecule B1, the binding entry was “no binding”.
Under B2 stands “binds”.
For B3, the binding result is listed as “no binding”.
Regarding B4, the binding entry is listed as “no binding”.
As for B5, the entry is “binds”; as for B6, “no binding”.

Values taken from publication PMC5605996.
